Among all 410,000 compounds or so, about 7,200 (1.8%) were called active. Inconclusive means that the source gave no clear call. Such entries were picked first, then a sample of the others. Calls follow the shape of the dose curve; as a rule, active = well fitted activation curve with a large enough effect; inconclusive = small, poorly fitted or top-dose-only effect, or another doubt; inactive = no such curve, though single readings can be large or run the other way. Potencies beside an inconclusive call are fits to weak or partial responses and may not hold up.
assay: qHTS of TDP-43 Inhibitors; conditions: TDP-43 expressing yeast growth rescue, BacTiter-Glo, 24 h; growth rescue (activation): at 46.1 µM (top of the series) unless noted; also: nearly all actives have a fitted effect of over 50% in size; as to growth rescue (activation): % of control where 0% means no effect
How it was run: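 Luminescence from BacTiter-Glo reports growth of TDP-43-expressing yeast after 24 hr at 30 deg C with compound. Cells were raffinose-pregrown to mid-log, then seeded in galactose medium at OD600=0.02.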
Potency is read from the fitted curve at half-maximal effect; tags tell the direction and shape of the fitted curve.

Potency, inconclusive:
C=CCN1C(=O)CSC1=Nc1ccc(C(=O)O)cc1 3.16 µM [activator, partial curve, poor fit]
N#Cc1ccccc1NC(=O)c1ccc2c(Cl)c3c(nc2c1)CCCC3 2.82 µM [activator, full curve]
Cc1ccc(N2CCN(C(=O)c3cccs3)CC2)cc1C 11.2 µM [activator, partial curve]
O=C(Nc1nc(-c2ccccc2)cs1)c1cccc([N+](=O)[O-])c1 17.8 µM [activator, partial curve]
COc1cccc(OCc2cc(C(=O)NCc3ccc4c(c3)OCO4)no2)c1 12.6 µM [activator, partial curve]
Cc1c(C(=O)NCc2ccccc2)oc2ccc(S(=O)(=O)N3CCC4(CC3)OCCO4)cc12 15.8 µM [activator, single point]
COc1cc(OC)cc(C(=O)NNC(=S)NC2CC2)c1 0.355 µM [activator, full curve, poor fit]
COc1ccc([N+](=O)[O-])cc1C1NN=C(c2ccccc2O)S1 (stereo not drawn) 11.2 µM [activator, partial curve, poor fit]
COc1ccc(-c2nn(-c3ccccc3)cc2CNC(=O)c2cccc([N+](=O)[O-])c2)cc1 3.98 µM [activator, full curve, poor fit]
O=C(OCc1cnc(Cl)s1)c1ccccc1Cl 17.8 µM [activator, partial curve]
COc1cccc2cc(C(=O)OCc3ccccc3)c(=O)oc12 15.8 µM [activator, single point]
CCOc1ccc(NC(=O)CNS(=O)(=O)c2c(C)cc(C)cc2C)cc1 3.16 µM [activator, partial curve]
COc1ccccc1/C=N/OC(=O)c1ccc(C)cc1 12.6 µM [activator, partial curve]
CCOC(=O)c1ccc2[nH]c3c(c2c1)CCCC3C(=O)OCC (stereo not drawn) 35.5 µM [activator, single point]
CN(C)/C=C1\SC(=S)N(c2ccc(F)cc2)C1=O 12.6 µM [activator, partial curve]
Cc1nc2sc(C#N)c(N)c2c2c1CCCC2 12.6 µM [activator, partial curve]
O=C1c2ccccc2-c2nc3ccccc3nc21 7.94 µM [activator, partial curve]
N/C(=N\OC(=O)c1ccc(Cl)cc1)c1ccn[nH]1 11.2 µM [activator, partial curve]
CCc1ccc(C#CC2=CC(=O)CC(C)(C)C2)cc1 3.16 µM [activator, partial curve]
COc1cccc(OCc2cc(C(=O)N3CCN(c4ccccc4OC)CC3)no2)c1 22.4 µM [activator, single point]
CSc1sc(-c2n[nH]c(=S)n2C)c2c1C=CCC2 22.4 µM [activator, single point]
N#Cc1c(N2CCCC(O)C2)nc(N)c2c(N)nc3c(c12)CC(=O)N3C12CC3CC(CC(C3)C1)C2 (stereo not drawn) 6.31 µM [activator, partial curve]
CCc1nc2c(OCc3ccc(C(F)(F)F)cc3)cccn2c1N(C)C(=O)CC(C)C 1 µM [activator, full curve, poor fit]
O=C(/C=C/c1cccs1)N1CCN(c2ccccc2)CC1 3.98 µM [activator, full curve]
COc1ccc(-c2nc3ccccc3n3c(-c4cccc(C)c4)c4c(=O)n(C)c(=O)n(C)c4c23)cc1 6.31 µM [activator, partial curve, poor fit]
CC1CC(C)CN(C(=O)CSc2ncnc3sccc23)C1 (stereo not drawn) 20 µM [activator, single point]
O=[N+]([O-])c1ccccc1NCCOc1ccccc1 7.94 µM [activator, partial curve, poor fit]
Cn1nccc1-c1ccc(C(=O)NCc2ccco2)c2occc12 35.5 µM [activator, single point]
COc1ccc(NC(=O)c2oc3ccccc3c2NC(=O)C2CCCO2)cc1OC (stereo not drawn) 15.8 µM [activator, single point]
COc1ccccc1C(=O)Nc1nnc(-c2ccco2)s1 11.2 µM [activator, partial curve]

Potency, active:
COc1ccc(NC(=O)N2c3ccccc3CC2C)cc1OC (stereo not drawn) 12.6 µM
COc1ccc(CN2C(=O)c3ccccc3C2=O)cc1C(=O)Nc1ccccc1N1CCOCC1 17.8 µM
O=C(CSc1ccc(F)cc1)N1CCC(c2nc3ccccc3s2)CC1 22.4 µM

Growth rescue (activation), inactive:
Cc1ccccc1Nc1sc(C(=O)c2ccccc2)c(N)c1C(=O)NCc1ccc(Cl)cc1 8.01%
COc1cc2cc(CNc3ccccc3)c(=O)n(CC(=O)Nc3ccccc3)c2cc1OC 11.6%
CCc1cccc(-n2c(=O)c3cccnc3n2CC(=O)NCc2ccccc2)c1 9.27%
CCCNS(=O)(=O)c1ccc2nc(NC(=O)c3ccc(F)cc3)sc2c1 28.3% [at 9.22 µM]
CCOc1ccc(/C=C/C(=O)Nc2sc3c(c2C(=O)OC)C(C(=O)OC)CC3)cc1 (stereo not drawn) 9.84%
CN(C)S(=O)(=O)c1ccc(C(=O)OCc2nnc(-c3ccccc3)o2)cc1 -27.4%
Cc1ccsc1/C=C/C1=Cc2c(sc(NC(=O)CSc3n[nH]c(N)n3)c2C#N)C(C)(C)C1 -18.7%
COc1cccc(NC(=O)Cn2c(=O)cc(C)c3c(C)nn(-c4cccc(F)c4)c32)c1 3.17%
CCN1C(=O)/C(=C/C=C2/SCCN2C)SC1=S 0.59%
Cc1ccc(CSc2nnc(-n3c(=O)c(C#N)cc4c(=O)n5cccc(C)c5nc43)s2)cc1 11.6%

— PubChem BioAssay AID652104 (National Center for Advancing Translational Sciences (NCATS), 2013)
